From PubChem BioAssay AID1768 (National Center for Advancing Translational Sciences (NCATS), 2009)
The whole screen tested about 270,000 compounds, of which about 620 (0.23%) were called active. Inconclusive results, whose numbers are uncertain, are shown with a selection of clear calls. Calls follow the shape of the dose curve; as a rule, active = well fitted inhibition curve with a large enough effect in the polarisation, with a control signal flat (not every such curve was filed as active); inconclusive = small, poorly fitted or top-dose-only effect, or effect the other way, or a change in a side signal; inactive = no such curve, though single readings can be large or run the other way; the % refers to the polarisation. A potency beside an inconclusive call is a rough fit, not a confirmed value. “Side channel” marks fits to a control or component signal instead of the main read-out.

target: Menin (Homo sapiens) (UniProt O00255); assay: qHTS Assay for Inhibitors Targeting the Menin-MLL Interaction in MLL Related Leukemias: Competition With Texas Red Labeled MLL-derived Mutant Peptide; conditions: fluorescence polarization; FP activity change, negative = inhibition: at 61.6 µM (top of the series); as to FP activity change, negative = inhibition: % of control where 0% means no effect
Chain of UniProt O00255 (O00255 whole entry, looked up): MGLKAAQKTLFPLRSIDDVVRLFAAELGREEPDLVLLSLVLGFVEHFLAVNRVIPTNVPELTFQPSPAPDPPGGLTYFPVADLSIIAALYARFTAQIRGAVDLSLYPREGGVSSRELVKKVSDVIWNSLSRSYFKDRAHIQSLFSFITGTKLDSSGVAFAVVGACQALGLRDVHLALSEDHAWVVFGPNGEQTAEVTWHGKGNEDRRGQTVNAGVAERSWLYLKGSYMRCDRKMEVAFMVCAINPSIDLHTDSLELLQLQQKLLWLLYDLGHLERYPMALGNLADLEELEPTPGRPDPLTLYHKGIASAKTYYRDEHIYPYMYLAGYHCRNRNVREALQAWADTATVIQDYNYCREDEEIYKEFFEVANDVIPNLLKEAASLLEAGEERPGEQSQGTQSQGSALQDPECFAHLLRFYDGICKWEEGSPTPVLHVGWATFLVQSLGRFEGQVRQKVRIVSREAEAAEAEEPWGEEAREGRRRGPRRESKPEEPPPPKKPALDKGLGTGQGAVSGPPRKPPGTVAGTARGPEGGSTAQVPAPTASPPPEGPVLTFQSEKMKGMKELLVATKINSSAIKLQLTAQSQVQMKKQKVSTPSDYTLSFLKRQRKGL
Potency is read from the fitted curve at half-maximal effect; tags tell the direction and shape of the fitted curve or compound fluorescence and quenching.

Compound | Potency | FP activity change, negative = inhibition
CCCc1cc(=O)n2[nH]c(NCc3c(F)cccc3Cl)nc2n1 | inconclusive: 44.7 µM [inhibitor, partial curve, poor fit] | 
COc1cc(-c2cccc([C@H]3[C@@H]4C=CC[C@@H](C)[C@@H]4C(=O)N3Cc3ccccc3)c2)cc(OC)c1OC | inconclusive: 4.47 µM [fluorescent, side channel, full curve] | 
COc1ccc(N(CC(=O)NCCSc2ccccn2)S(=O)(=O)c2ccccc2)c(OC)c1 | inconclusive: 1.12 µM [inhibitor, full curve] | 
O=C(Cc1ccccc1)Nc1ccc(-c2nnc(-c3ccco3)o2)cc1 | inactive | 
COc1ccccc1-c1cn(S(=O)(=O)c2ccc(F)cc2)nc1N | inconclusive: 31.6 µM [quencher, side channel, partial curve] | 
Oc1ccccc1-c1cc(-c2ccco2)[nH]n1 | inconclusive: 17.8 µM [quencher, side channel, partial curve] | 
CC(=O)Nc1ccc(-c2csc(NC(C)c3ccccc3)n2)cc1 (centres undefined) | inconclusive: 22.4 µM [quencher, side channel, single point] | 
COC(=O)Cc1csc(Nc2ccc(F)c(Cl)c2)n1 | inconclusive: 14.1 µM [quencher, side channel, partial curve] | 
CCn1c(C(=O)O)c(CC(=O)Nc2cccc(C(F)(F)F)c2)c2ccccc21 | inconclusive: 35.5 µM [quencher, single point] | 
Nc1nc(-c2ccc(Cl)cc2)c(S(=O)(=O)c2ccccc2)s1 | inconclusive: 22.4 µM [quencher, side channel, partial curve] | 
COc1ccc(-c2cncnc2-c2ccc(OC)cc2O)cc1 | inactive | 
C=C(C)COc1ccc(-c2nc(N)ncc2Oc2ccccc2OC)c(O)c1 | inconclusive: 15.8 µM [quencher, side channel, partial curve] | 
CCOc1ccc(C2C(C(=O)c3ccc(C)o3)=C(O)C(=O)N2c2cc(C)on2)cc1OC (centres undefined) | inconclusive: 22.4 µM [quencher, side channel, single point] | 
COc1ccc(CNCC(=O)Nc2cc(OC)cc(OC)c2)cc1 | inconclusive: 5.01 µM [inhibitor, full curve, poor fit] | 
COc1ccc(-c2nnc(SCC(=O)NC(=O)NCc3ccccc3)o2)cc1 | inconclusive: 28.2 µM [fluorescent, partial curve] | 
Nc1nonc1-n1nnc(C(=O)N/N=C/c2ccncc2)c1CSc1ccccc1 | inconclusive: 25.1 µM [quencher, side channel, single point] | 
Cc1c([N+](=O)[O-])cc(C(=O)NCc2ccc(F)cc2)cc1[N+](=O)[O-] | inconclusive: 31.6 µM [quencher, side channel, partial curve] | 
Cc1cc(C)cc(NCc2cc(=O)oc3cc(-c4ccccc4)c(O)cc23)c1 | inconclusive: 8.91 µM [quencher, side channel, partial curve] | 
COc1ccc2nc(NC(=O)CS(=O)(=O)Cc3ccccc3)sc2c1 | inconclusive: 39.8 µM [fluorescent, side channel, single point] | 
Cc1ccc(Cl)cc1NC(=O)CNCC(c1ccccc1)N(C)C (centres undefined) | inconclusive: 28.2 µM [inhibitor, single point] | 
Cc1cccc2cc(CN(Cc3cccs3)Cc3nnnn3Cc3ccccc3)c(=O)[nH]c12 | inconclusive: 2.82 µM [fluorescent, side channel, full curve] | 
COc1cccc(Nc2nc(-c3ccccc3)nc3ccccc23)c1 | inconclusive: 2.82 µM [quencher, side channel, full curve] | 
CC1(C)CC2CC(C)(CN2S(=O)(=O)c2ccc(N)cc2)C1 (centres undefined) | inconclusive: 39.8 µM [fluorescent, side channel, single point] | 
Cc1ccc(C(=O)Nc2ccccc2Cl)cc1 | inactive | 
CCCCCCCCn1cc(C(C)=O)c(=O)[nH]c1=O | inconclusive: 8.91 µM [inhibitor, partial curve] | 
CCOc1cccc(CN(CC)CC2CCCN(CCc3cccc(OC)c3)C2)c1O (centres undefined) | inconclusive: 39.8 µM [inhibitor, single point] | 
Cc1ccc2c(cnn2C(=O)CCCC(=O)NCc2ccc(Cl)cc2)c1 | inconclusive: 5.01 µM [quencher, side channel, single point] | 

Compound | Potency | FP activity change, negative = inhibition
COc1ccc(CNC(=O)C2CCCN(Cc3nc(-c4cccc(C)c4)oc3C)C2)cc1 (centres undefined) | inconclusive: 1.41 µM [fluorescent, side channel, full curve] | 
COc1cccc(/C=N/Nc2snc(SC)c2C#N)c1O | inconclusive: 12.6 µM [quencher, side channel, partial curve] | 
COc1ccc([C@]23Cc4cc(OC)c(OC)cc4C(O2)c2c(cc(C)n(Cc4ccccc4)c2=O)O3)cc1 | inconclusive: 3.55 µM [quencher, side channel, single point] | 
O=[N+]([O-])c1cc(C=Nc2ccc3ccccc3c2)ccc1Br | inconclusive: 28.2 µM [quencher, side channel, partial curve] | 
CCOC(=O)c1c(C)n(-c2ccc(C)cc2)c2ccc(OCC(O)CNCC3CCCO3)cc12 (centres undefined) | inconclusive: 1.26 µM [fluorescent, side channel, full curve] | 
Cc1cc(C)cc(NC(=O)Nc2ccc(S(=O)(=O)Nc3cc(C)on3)cc2)c1 | inconclusive: 20 µM [quencher, side channel, single point] | 
CC(=O)Nc1ccc(-c2csc(NC(=O)Cc3ccccc3F)n2)cc1 | inconclusive: 22.4 µM [quencher, side channel, single point] | 
Cc1noc(C)c1S(=O)(=O)N1CCCC(C(=O)c2cccc(OC(C)C)c2)C1 (centres undefined) | inconclusive: 7.08 µM [inhibitor, partial curve] | 
Cc1ccc(CSc2nnc(-c3ccncc3)o2)c(C)c1 | inconclusive: 11.2 µM [fluorescent, side channel, partial curve] | 
CCOc1ncccc1C(=O)N1CCN(C(c2ccccc2)c2ccccc2)CC1 | inconclusive: 14.1 µM [fluorescent, side channel, partial curve] | 
COc1cccc2[nH]c(=O)c(-c3ccccc3)cc12 | inconclusive: 0.708 µM [inhibitor, full curve] | 
COc1cc(/C=N/NC(=O)c2ccncc2)c([N+](=O)[O-])cc1OC | inconclusive: 20 µM [quencher, side channel, partial curve] | 
CCc1ccc(NC(=O)CCC(=O)c2ccc(C)cc2)cc1 | inconclusive: 39.8 µM [inhibitor, single point] | 
COC(=O)N1C2CC3(C)CC(=O)CC1(C)C3c1ccccc12 (centres undefined) |  | inactive: 0.984% [at 11.7 µM]
CSc1n[nH]c(N)c1S(=O)(=O)c1ccc(Cl)cc1 | inconclusive: 15.8 µM [quencher, side channel, partial curve] | 
C#CCOCCOCCOCCNc1nc(N2CCN(C(=O)[C@H](CCC(=O)O)n3cc(C(N)CC(C)C)nn3)CC2)nc(N2CCN(C(=O)[C@H](Cc3cc4ccccc4[nH]3)n3cc(C(N)[C@H](C)CC)nn3)CC2)n1 (some centres undefined) | inconclusive: 39.8 µM [fluorescent, side channel, partial curve] | 
COc1cc(C(=S)N2CCOCC2)cc(OC)c1OC(=O)c1ccc([N+](=O)[O-])cc1[N+](=O)[O-] | inconclusive: 14.1 µM [quencher, side channel, partial curve] | 
Cc1ccc(NC(=O)CCN2C(=O)c3ccccc3C2=O)c(C)c1 | inconclusive: 7.94 µM [inhibitor, partial curve] | 
Cc1nn(C(C)(C)C)c(OC(=O)CC(C)C)c1S(=O)(=O)c1ccccc1 | inconclusive: 22.4 µM [fluorescent, side channel, partial curve] | 
Cc1cccc(OC(=O)CCN2C(=O)C3C4C=CC(C5CC45)C3C2=O)c1C (centres undefined) | inconclusive: 11.2 µM [fluorescent, side channel, partial curve] | 
CNc1ccc(Br)cc(C(=O)/C=C/c2cccc(OC)c2)c1=O | inconclusive: 31.6 µM [quencher, single point] | 
COc1ccc(NC(=O)CC2C(=O)N(c3ccc(F)cc3)C(=S)N2NC(=O)c2ccccc2)cc1 (centres undefined) | inconclusive: 14.1 µM [quencher, side channel, partial curve] | 
O=C(CNC(=O)/C=C/c1ccco1)N=Nc1c(O)[nH]c2ccccc12 | inconclusive: 22.4 µM [quencher, side channel, single point] | 
CCN(CC)S(=O)(=O)c1cccc(NC(=O)c2cc3ccccc3o2)c1 | inconclusive: 15.8 µM [quencher, side channel, partial curve] | 
CC(C)CCNCC(O)CON=C1c2ccccc2-c2ccccc21 (centres undefined) | inconclusive: 1.41 µM [fluorescent, side channel, full curve, poor fit] | 
CC(=O)Nc1ccc(Nc2cc(C)nc3c(-c4ccccc4)cnn23)cc1 | inconclusive: 20 µM [quencher, side channel, partial curve] | 
Cc1cc2oc(=O)cc(CN3CCC(C)CC3)c2cc1C | inconclusive: 22.4 µM [fluorescent, side channel, partial curve] | 
